Experimental data taken from the RNAGym collection of RNA variant scans (doi:10.1073/pnas.2313332121).
This sample is rich in variants without activity.

B1: TPR 5TU (parent)
chain: GGAUCUUCUCGAUCUAACAAAAAAGACAAAUCUGCCACAAAGCUUGAGAGCAUCUUCGGAUGCAGAGGCGGCAGCCUUCGGUGGCGCGAUAGCGCCAACGUUCUCAACUAUGACACGCAAAACGCGUGCUCCGUUGAAUGGAGUUUAUCAUG

Variants of: B1
Assay: polymerase ribozyme fitness, log enrichment relative to wild type (log ratio); higher = more active; in vitro selection for triplet polymerase activity
Summary of the method: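 Only genotypes with ≥10 input reads and ≥1 read per output were kept after Illumina sequencing of input and output libraries. These libraries were PCR-built, transcribed mutants of each subunit of a heterodimeric triplet polymerase ribozyme, each put through one triplicate in vitro selection round with frozen incubation at −7 °C, gel excision of extended constructs, streptavidin-bead capture and RT-PCR. Fitness is a logarithmic ratio of genotype enrichment to wild-type enrichment, from inverse-variance-weighted replicate averages, with the logarithm in base 2.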

| Variant | polymerase ribozyme fitness (log ratio) |
| --- | --- |
| GGCUCUUCUCGAUAUAACAAAAAAGGCAAAUCUGCCACAAAGCUUGAGACCAUCUUCGGAUGCAGAGGCGGCAGCCUUCGGUGGCGCGAUGGCGCCAACGUUCUCAACUAUGACACACAAAACGUGUGCUCCGUUGAAUAGACUUUAUCAUG | ≤ -4.2 |
| GGCUCUUCUCGAUGUAACAAAAAUGACAAAUCUGCCACAAAGCUUGAGAGCAUCUUCGGAUGCAGAGGCAGCAGCCUUUGGUGGCGAGAUAGCGCCAACGUUCUCAACUAUGGCACGCAAAACGCGUGCUACGUUGAAUGGAGUUUAUCAUG | ≤ -4.2 |
| GGCUCUUCUCGAUGUAACAAAAAAGACAAAUCUGUCAUAAAGCUUGAGAGCAUCUUCGGAUGCAGAGGCGGCAUCCUUCGGUGGCGCGAUAGCGCCAACGUUCUCAACUAUGACACGCAAAACGCGUGUUCCGUUGAAUGGCGUUUAUCAUG | ≤ -4.2 |
| GGCUCUUCUCGAUCUAAAAAAAAAGACAAAUCUGCCACAAAGCAUGAGAGCAUUUUCGGAUGCAGAGGCGGCAGCCUUCGGUUGGGCGAUAGCGCAAACGUUCUCUACUAUGACACGCAAAACGCGUGCUCCGUUGAAUGGAGUUUAUCAUG | ≤ -4.2 |
| GGCUCUUCUCGAUCUAAGAAAAAACACAAAUCUGCCACAAAGCUUGAGAGCAUCUUCGGAUGCAGAGGCGGAAGCCUUCGGUGGAGCGAUAGCGCCAACGUUCUCAACUAUGACACGCAAAACGCGUGCUCCGUUGAACUGAGUUUAUCAUG | ≤ -4.2 |
| GGCUCUUCUCGAUCUAACAAAAAAGAGAAAUCUGCCACAAAGCUUGAGAGCAUCUUCGGAUGCAGAGGCGGCAGCCUUCGGUGGCGCGAUAGUGCCAACGUUCUCAACUAUGACACGCAAAACGCGUGCUCCCUUGAAUGGAGUUUAUCAUG | ≤ -4.2 |
| GGCUCUUCUCGAUCUAACAAAAAAGAUAAAUCUGGCACAAAGCUUGAGAGCAUCUUAGGAUGCAGAGGCGGCAGCCUUCGGUGACGUGAUAGCGCCAACGUUCUCAACUAUGACACGCAAAACGCGUGCUCCGUUGAAUGGAGUUUAUCAUG | ≤ -4.2 |
| GGCUCUUCUCGAUCUAACAAAAAAGACAAAUCUGCGACAAAGCUUGAGAGCAUCUUCGGCUGCAGAGGCGGCAGCCUUCGGUUGCGCGAUAGCGCCAACGUUCUCAACUAUGACACGGAAAACGCGUGCUCCGUUGAAUGGAGUUUAUCACG | ≤ -4.2 |
| GGCUCUUCUCGAUCUAACAAAAAAGACAAAUCUGCCACAAAGCUUGAGAGGAUCGUCGGAUGCAGAGGCGGCAGUCUUCGGUGGCGCGAUAGCGCCAACGUUCUCAACUAUGACACGAAAAACGCGUGCUCCGUUGAAUGGAGUUUAUCAUG | ≤ -4.2 |
| GGCUCUUCUCGAUCUAACAAAAAAGACAAAUCUGCCACAAAGCUUGAGAGCAUCUUAGGAUGCAGAGGCGGCAGCCUUCGGUGACGCCAUAGCGUCAACGUUCUCAACUAUGACACGCAUAACGCGUGCUCCGUUGAAUGGAGUUUAACAUG | ≤ -4.2 |
| GGCUCUUCUCGAUCUAACAAAAAAGACAAAUCUGCCACAAAGCUUGAGAGCAUCUUUGGAUGCAGAGGCGACAGCCUACGGUGGAGCGAUAGCGCCAACGUUCUCAACUAUGACACGUAAAACGCGUGCUCCGUUGAAUGGAGUUUAUCACG | ≤ -4.2 |
| GGCUCUUCUCGAUCUAACAAAAAAGACAAAUCUGCCACAAAGCUUGAGAGCAUCUUCGGAUGCAGAGGUGGCAGCCUUCGGUGGCGCGAUAACGCCAACGUUCUCAACUAUGAAACGAAAAACGCGUGCUCCCUUGAAUGGAGUUUAUCAUG | ≤ -4.2 |
| GGCUCUUCUCGAUCUAACAAAAAAGACAAAUCUGCCACAAAGCUUGAGAGCAUCUUCGGAUGCAGAGGCGGCAGCUUUCGGUGGCGCGAUAGCGCAAACGUUCUCAACUAUGACACGCAAAACGCGUGCUCCGUUGAAUGGAGUUUAUCAUG | -0.525 |
| GGCUCUUCUCGAUCUAACAAAAAAGACAAAUCUGCCACAAAGCUUGAGAGCAUCUUCGGAUGCAGAGGCGGCAGCCUUCGGUGGUGCGAUAGCGCUAACGUUCUCAACUAUGACACGCAAAACGCGUGCUCCGUUGAAUGGAGUUUAUCAUG | -0.556 |
| GGCUCUUCUCGAUCUAACAAAAAAGACAAAUCUGCCACAAAGCUUGAGAGCAUCUUCGGAUGCAGAGGCGGCAGCCUUCGGUGGCGAAAUAGCGCCAACGUUCUCAACUAUGACACGCAAAACGCGUGCUCCGUUGUAUGGAGUUUAUCAUG | ≤ -4.2 |
| GGCUCUUCUCGAUCUAACAAAAAAGACAAAUCUGCCACAAAGCUUGAGAGCAUCUUCGGAUGCAGAGGCGGCAGCCUUCGGUGGCGGGAUAGCGCCAACGUUCUCAACUAUGACACGCAAAACGCGUGCUCCGUUGAAUGGAGUUUAUCAUG | -3.29 |
| GGCUCUUCUCGAUCUAACAAAAAAGACAAAUCUGCCACAAAGCUUGAGAGCAUCUUCGGAUGCAGAGGCGGCAGCCUUCGGUGGCGGGAUAGCGCCUACGUUCUCAACUAUGACACGCAAAACGCGUGCUCCGUUGAAUGGAGUUUAUCAUG | ≤ -4.2 |
| GGCUCUUCUCGAUCUAACAAAAAAGACAAAUCUGCCACAAAGCUUGAGAGCAUCUUCGGAUGCAGAGGCGGCAGCCUUCGGUGGCGCGAUAGUGCAAACGUUCUCUAAUAUGAGACGCAAAACGCGUGCUCCGUUGAAUGUAGUUGAUCACG | ≤ -4.2 |
| GGCUCUUCUCAAUCUAACCAAAAAGACAAAUCUGCCACAAAGCUUGAGAGCAUUUUCGGAUGCAGAGGCGGCAGCCUUCGGUGGCGCGAUAGCGCCAACGUUCUCAACUAUGACACGCAAAUCGCGUGCUCCGUAGAAUGGAAUUUAUCAUG | -3.73 |
